Reference: PubChem BioAssay (NCI)
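Compound exposure: 48 hours, 5 concentrations, 96-well plates. GI50 marks 50% less growth. Definition used: TGI = concentration required for complete inhibition of growth.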

Tested on: NCI-H322M lung
Assay: NCI anticancer screen, dose series, 48 h

Structure (SMILES)	GI50 [µM]	TGI [µM]
O=C(N/N=C/c1ccc([N+](=O)[O-])s1)c1[nH]c2ccc(Br)cc2c1-c1ccccc1	2.57	> 74.9
N#Cc1c(NC(=O)c2ccccc2C(F)(F)F)sc2c1CCC(=O)C2	5.88	> 100
COc1ccc2[nH]cc(-c3nc(N)nnc3-c3cn(C)c4ccc(Br)cc34)c2c1	3.85	22.5
